Data: publication PMC4931317, “UtpA and UtpB chaperone nascent pre-ribosomal RNA and U3 snoRNA to initiate eukaryotic ribosome assembly” (Nature Communications, 2016)
These are yes or no findings as the source states them, for the method shown. Some binding calls cover weakened binding; strength is not graded here. For part of these data: Sequences can lack the tags named with a protein.

Columns and labels:
[1] = target: T1, His14-3C-Utp12 (recombinant) (S. cerevisiae) (UniProt Q12220); assay: SEC; Utp12/Utp13/StrepII-Sumo-Utp21/Utp1 co-expressed in E. coli and purified by the His14 tag on Utp12; main peak fraction of the size-exclusion run; 50 mM HEPES-NaOH pH 7.6, 300 mM NaCl; both purified
T1 sequence: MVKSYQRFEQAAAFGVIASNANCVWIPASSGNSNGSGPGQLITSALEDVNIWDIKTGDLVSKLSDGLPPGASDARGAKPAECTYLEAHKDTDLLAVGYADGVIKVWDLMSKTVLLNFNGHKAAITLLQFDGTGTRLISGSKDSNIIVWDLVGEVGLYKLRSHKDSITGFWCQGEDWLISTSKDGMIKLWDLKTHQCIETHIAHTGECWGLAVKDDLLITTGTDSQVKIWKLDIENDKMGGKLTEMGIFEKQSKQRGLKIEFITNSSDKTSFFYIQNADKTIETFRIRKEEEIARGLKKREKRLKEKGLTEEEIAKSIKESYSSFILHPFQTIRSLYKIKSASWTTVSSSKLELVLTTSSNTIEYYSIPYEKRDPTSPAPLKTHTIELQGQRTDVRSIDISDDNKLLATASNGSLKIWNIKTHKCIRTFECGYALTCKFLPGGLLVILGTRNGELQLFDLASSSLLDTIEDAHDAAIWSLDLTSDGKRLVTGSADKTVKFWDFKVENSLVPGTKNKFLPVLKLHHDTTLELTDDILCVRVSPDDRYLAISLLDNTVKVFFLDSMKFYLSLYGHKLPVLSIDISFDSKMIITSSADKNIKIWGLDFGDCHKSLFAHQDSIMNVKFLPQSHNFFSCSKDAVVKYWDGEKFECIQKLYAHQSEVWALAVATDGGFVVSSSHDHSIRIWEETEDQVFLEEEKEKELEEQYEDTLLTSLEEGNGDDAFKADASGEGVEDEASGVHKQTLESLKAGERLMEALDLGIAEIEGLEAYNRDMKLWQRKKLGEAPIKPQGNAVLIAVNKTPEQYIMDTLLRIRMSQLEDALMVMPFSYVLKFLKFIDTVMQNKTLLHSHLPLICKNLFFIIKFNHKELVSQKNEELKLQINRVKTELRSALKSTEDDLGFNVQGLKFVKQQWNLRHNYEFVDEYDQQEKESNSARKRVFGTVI

[2] = target: T2, Utp13 (recombinant) (S. cerevisiae) (UniProt Q05946); assay: cross-linking; DSS (0.2, 0.4 and 0.8 mM, H12/D12) cross-linking of SEC-purified recombinant UtpBΔUtp6ΔUtp18, 0.2 mg/ml, room temperature, 30 min, 50 mM HEPES-NaOH pH 7.7, 300 mM NaCl, 1 mM EDTA; cross-linked peptides found by mass spectrometry (pLink); both purified
T2 sequence: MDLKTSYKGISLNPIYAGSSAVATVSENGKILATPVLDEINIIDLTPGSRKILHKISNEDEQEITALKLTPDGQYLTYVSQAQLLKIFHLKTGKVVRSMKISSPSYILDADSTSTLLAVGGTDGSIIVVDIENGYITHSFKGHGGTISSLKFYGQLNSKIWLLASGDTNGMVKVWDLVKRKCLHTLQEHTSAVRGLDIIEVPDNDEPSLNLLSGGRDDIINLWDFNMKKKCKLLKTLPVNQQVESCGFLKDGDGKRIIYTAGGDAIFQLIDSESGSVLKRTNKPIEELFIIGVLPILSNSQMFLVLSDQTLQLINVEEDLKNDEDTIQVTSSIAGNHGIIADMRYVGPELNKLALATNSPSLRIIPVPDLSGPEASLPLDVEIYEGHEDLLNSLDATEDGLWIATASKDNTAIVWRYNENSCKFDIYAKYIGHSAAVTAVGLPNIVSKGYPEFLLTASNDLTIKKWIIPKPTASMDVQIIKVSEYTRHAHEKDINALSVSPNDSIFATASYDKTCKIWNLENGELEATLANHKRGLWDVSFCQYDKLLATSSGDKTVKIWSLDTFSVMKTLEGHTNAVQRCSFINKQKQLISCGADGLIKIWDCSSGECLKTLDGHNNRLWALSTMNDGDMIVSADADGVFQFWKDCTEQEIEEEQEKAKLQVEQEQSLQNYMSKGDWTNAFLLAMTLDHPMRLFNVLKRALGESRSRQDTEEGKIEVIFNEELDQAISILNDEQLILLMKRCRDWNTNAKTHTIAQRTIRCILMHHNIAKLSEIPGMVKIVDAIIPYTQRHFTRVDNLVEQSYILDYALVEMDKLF

[3] = target: T1, His14-3C-Utp12 (recombinant) (S. cerevisiae); assay: as above

binding [1]: binds | binding [2]: binds | binding [3]: binds
B1: StrepII-Sumo-Utp21 (recombinant) (protein, UniProt Q06078 1-939)
chain: MSIDLKKRKVEEDVRSRGKNSKIFSPFRIIGNVSNGVPFATGTLGSTFYIVTCVGKTFQIYDANTLHLLFVSEKETPSSIVALSAHFHYVYAAYENKVGIYKRGIEEHLLELETDANVEHLCIFGDYLCASTDDNSIFIYKKSDPQDKYPSEFYTKLTVTEIQGGEIVSLQHLATYLNKLTVVTKSNVLLFNVRTGKLVFTSNEFPDQITTAEPAPVLDIIALGTVTGEVIMFNMRKGKRIRTIKIPQSRISSLSFRTDGSSHLSVGTSSGDLIFYDLDRRSRIHVLKNIHRESYGGVTQATFLNGQPIIVTSGGDNSLKEYVFDPSLSQGSGDVVVQPPRYLRSRGGHSQPPSYIAFADSQSHFMLSASKDRSLWSFSLRKDAQSQEMSQRLHKKQDGGRVGGSTIKSKFPEIVALAIENARIGEWENIITAHKDEKFARTWDMRNKRVGRWTFDTTDDGFVKSVAMSQCGNFGFIGSSNGSITIYNMQSGILRKKYKLHKRAVTGISLDGMNRKMVSCGLDGIVGFYDFNKSTLLGKLKLDAPITAMVYHRSSDLFALALDDLSIVVIDAVTQRVVRQLWGHSNRITAFDFSPEGRWIVSASLDSTIRTWDLPTGGCIDGIIVDNVATNVKFSPNGDLLATTHVTGNGICIWTNRAQFKTVSTRTIDESEFARMALPSTSVRGNDSMLSGALESNGGEDLNDIDFNTYTSLEQIDKELLTLSIGPRSKMNTLLHLDVIRKRSKPKEAPKKSEKLPFFLQLSGEKVGDEASVREGIAHETPEEIHRRDQEAQKKLDAEEQMNKFKVTGRLGFESHFTKQLREGSQSKDYSSLLATLINFSPAAVDLEIRSLNSFEPFDEIVWFIDALTQGLKSNKNFELYETFMSLLFKAHGDVIHANNKNQDIASALQNWEDVHKKEDRLDDLVKFCMGVAAFVTTA
